{
  "source": "the supplement of paper PMC8728848",
  "binders": {"B1": {"name": "PX9937J-pdi-523-26-523 (Parabacteroides distasonis) (protein)", "chain": "EPVSSISDANYWKSPDLFKAFNIGLHGLLRSQSSYNIFVLGEPRSDIYGDQPFGGEATQGVERFSYNTINAEFTGISNFANFYTTLNQINLMIRRTNETDLLGEAEKNYYLGQAYGLRAYIYFHLLRSWGDVIITTEPTLGSELDISHLDKAASPASEVMDLIKKDIDASEKAFGGDYSYKQGKCYWSKPATLMLKGEVYLWSGRQMGGGTGDYTVAKTALQDLQQNGNLKLQEKFTDVFSFNNKENSEMIFALHSGKEDDFMMWRDYNWRNNMVPQREYMAGYCDETGTPFLEIPGYNLQGLMRYQVKKDHYLKSFREGDTRLKGTLKAVYKKHEDGTLEYIAPIQYKFQGTTLEGSNERSWYDDYPIYRYADALLLLAEAKALLGEDPSTEINAVRERAYGSEYFNAHKNEVAYPNDKGSFYNDNPFEAGDENVMEAILKERLREFFFEGKRWYDLRRFGKDYVLKYTTAQESRLLWPINEGALTNNPALKQTPGY"}},
  "test_in_all_cases": "glycan array binding signal (z-score within array); higher = stronger binding",
  "conditions_in_all_cases": "glycan notation: IUPAC condensed, linker removed",
  "key": {"[1]": {"target": "Neu5Ac(a2-3)Gal(b1-4)GlcNAc(b1-2)[Neu5Ac(a2-3)Gal(b1-4)GlcNAc(b1-4)]Man(a1-3)[GlcNAc(b1-4)][Neu5Ac(a2-3)Gal(b1-4)GlcNAc(b1-4)Man(a1-6)]Man(b1-4)GlcNAc(b1-4)GlcNAc", "summary_of_the_method": "(§1)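 The binding signal is a Z-score computed within each array and averaged over linkers. Arrays of the same protein sequence at different concentrations or buffers were also averaged together. Data originate from 3228 arrays in the Consortium for Functional Glycomics database, kept only where the protein sequence was available.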"}, "[2]": {"target": "Neu5Ac(a2-3)Gal(b1-4)GlcNAc(b1-2)[Neu5Ac(a2-3)Gal(b1-4)GlcNAc(b1-6)]Man(a1-6)[Neu5Ac(a2-3)Gal(b1-4)GlcNAc(b1-2)Man(a1-3)]Man(b1-4)GlcNAc(b1-4)GlcNAc", "summary_of_the_method": "as §1"}, "[3]": {"target": "Neu5Ac(a2-3)Gal(b1-4)GlcNAc(b1-2)[Neu5Ac(a2-3)Gal(b1-4)GlcNAc(b1-6)]Man(a1-6)[Neu5Ac(a2-3)Gal(b1-4)GlcNAc(b1-2)Man(a1-3)][GlcNAc(b1-4)]Man(b1-4)GlcNAc(b1-4)GlcNAc", "summary_of_the_method": "as §1"}, "[4]": {"target": "Neu5Ac(a2-3)Gal(b1-4)GlcNAc(b1-3)Gal", "summary_of_the_method": "as §1"}, "[5]": {"target": "Neu5Ac(a2-3)Gal(b1-4)GlcNAc(b1-3)Gal(b1-3)GlcNAc", "summary_of_the_method": "as §1"}, "[6]": {"target": "Neu5Ac(a2-3)Gal(b1-4)GlcNAc(b1-3)Gal(b1-4)GlcNAc", "summary_of_the_method": "as §1"}, "[7]": {"target": "Neu5Ac(a2-3)Gal(b1-4)GlcNAc(b1-3)Gal(b1-4)GlcNAc(b1-2)Man(a1-3)[Neu5Ac(a2-3)Gal(b1-4)GlcNAc(b1-3)Gal(b1-4)GlcNAc(b1-2)Man(a1-6)]Man(b1-4)GlcNAc(b1-4)GlcNAc", "summary_of_the_method": "as §1"}, "[8]": {"target": "Neu5Ac(a2-3)Gal(b1-4)GlcNAc(b1-3)Gal(b1-4)GlcNAc(b1-3)Gal(b1-4)GlcNAc", "summary_of_the_method": "as §1"}, "[9]": {"target": "Neu5Ac(a2-3)Gal(b1-4)GlcNAc(b1-3)Gal(b1-4)GlcNAc(b1-3)Gal(b1-4)GlcNAc(b1-2)Man(a1-3)[Neu5Ac(a2-3)Gal(b1-4)GlcNAc(b1-3)Gal(b1-4)GlcNAc(b1-3)Gal(b1-4)GlcNAc(b1-2)Man(a1-6)]GalNAc", "summary_of_the_method": "as §1"}, "[10]": {"target": "Neu5Ac(a2-3)Gal(b1-4)GlcNAc(b1-3)Gal(b1-4)GlcNAc(b1-3)GalNAc", "summary_of_the_method": "as §1"}, "[11]": {"target": "Neu5Ac(a2-3)Gal(b1-4)GlcNAc(b1-3)Gal(b1-4)GlcNAc(b1-3)[Neu5Ac(a2-3)Gal(b1-4)GlcNAc(b1-3)Gal(b1-4)GlcNAc(b1-6)]GalNAc", "summary_of_the_method": "as §1"}, "[12]": {"target": "Neu5Ac(a2-3)Gal(b1-4)GlcNAc(b1-3)Gal(b1-4)GlcNAc(b1-6)[Gal(b1-3)]GalNAc", "summary_of_the_method": "as §1"}, "[13]": {"target": "Neu5Ac(a2-3)Gal(b1-4)GlcNAc(b1-3)Gal(b1-4)[Fuc(a1-3)]GlcNAc", "summary_of_the_method": "as §1"}, "[14]": {"target": "Neu5Ac(a2-3)Gal(b1-4)GlcNAc(b1-3)GalNAc", "summary_of_the_method": "as §1"}, "[15]": {"target": "Neu5Ac(a2-3)Gal(b1-4)GlcNAc(b1-3)[Neu5Ac(a2-3)Gal(b1-4)GlcNAc(b1-6)]GalNAc", "summary_of_the_method": "as §1"}, "[16]": {"target": "Neu5Ac(a2-3)Gal(b1-4)GlcNAc(b1-6)GalNAc", "summary_of_the_method": "as §1"}, "[17]": {"target": "Neu5Ac(a2-3)Gal(b1-4)GlcNAc(b1-6)[Gal(b1-3)]GalNAc", "summary_of_the_method": "as §1"}, "[18]": {"target": "Neu5Ac(a2-3)Gal(b1-4)GlcNAc(b1-6)[Neu5Ac(a2-3)Gal(b1-3)]GalNAc", "summary_of_the_method": "as §1"}, "[19]": {"target": "Neu5Ac(a2-3)Gal(b1-4)GlcNAc6S", "summary_of_the_method": "as §1"}, "[20]": {"target": "Neu5Ac(a2-3)Gal(b1-4)[Fuc(a1-3)]GlcNAc", "summary_of_the_method": "as §1"}, "[21]": {"target": "Neu5Ac(a2-3)Gal(b1-4)[Fuc(a1-3)]GlcNAc(b1-2)Man", "summary_of_the_method": "as §1"}, "[22]": {"target": "Neu5Ac(a2-3)Gal(b1-4)[Fuc(a1-3)]GlcNAc(b1-3)Gal", "summary_of_the_method": "as §1"}, "[23]": {"target": "Neu5Ac(a2-3)Gal(b1-4)[Fuc(a1-3)]GlcNAc(b1-3)Gal(b1-4)GlcNAc", "summary_of_the_method": "as §1"}, "[24]": {"target": "Neu5Ac(a2-3)Gal(b1-4)[Fuc(a1-3)]GlcNAc(b1-3)Gal(b1-4)[Fuc(a1-3)]GlcNAc(b1-3)Gal(b1-4)[Fuc(a1-3)]GlcNAc", "summary_of_the_method": "as §1"}, "[25]": {"target": "Neu5Ac(a2-3)Gal(b1-4)[Fuc(a1-3)]GlcNAc(b1-3)GalNAc", "summary_of_the_method": "as §1"}, "[26]": {"target": "Neu5Ac(a2-3)Gal(b1-4)[Fuc(a1-3)]GlcNAc(b1-6)[Gal(b1-3)]GalNAc", "summary_of_the_method": "as §1"}, "[27]": {"target": "Neu5Ac(a2-3)Gal(b1-4)[Fuc(a1-3)]GlcNAc(b1-6)[Neu5Ac(a2-3)Gal(b1-3)]GalNAc", "summary_of_the_method": "as §1"}, "[28]": {"target": "Neu5Ac(a2-3)Gal(b1-4)[Fuc(a1-3)]GlcNAc6S", "summary_of_the_method": "as §1"}, "[29]": {"target": "Neu5Ac(a2-3)Gal6S(b1-4)GlcNAc", "summary_of_the_method": "as §1"}, "[30]": {"target": "Neu5Ac(a2-3)Gal6S(b1-4)[Fuc(a1-3)]GlcNAc", "summary_of_the_method": "as §1"}, "[31]": {"target": "Neu5Ac(a2-3)GalNAc", "summary_of_the_method": "as §1"}, "[32]": {"target": "Neu5Ac(a2-3)GalNAc(b1-4)GlcNAc", "summary_of_the_method": "as §1"}, "[33]": {"target": "Neu5Ac(a2-3)[GalNAc(b1-4)]Gal(b1-4)Glc", "summary_of_the_method": "as §1"}, "[34]": {"target": "Neu5Ac(a2-3)[GalNAc(b1-4)]Gal(b1-4)GlcNAc", "summary_of_the_method": "as §1"}, "[35]": {"target": "Neu5Ac(a2-3)[GalNAc(b1-4)]Gal(b1-4)GlcNAc(b1-3)GalNAc", "summary_of_the_method": "as §1"}, "[36]": {"target": "Neu5Ac(a2-3)[Neu5Ac(a2-6)]GalNAc", "summary_of_the_method": "as §1"}, "[37]": {"target": "Neu5Ac(a2-6)Gal", "summary_of_the_method": "as §1"}},
  "note": "Some of the results follow.",
  "data": [
    {"binder": "B1", "values": [
      {"measurement": "glycan array binding signal (z-score)", "setting": "[1]", "result": -0.182},
      {"measurement": "glycan array binding signal (z-score)", "setting": "[2]", "result": 0.065},
      {"measurement": "glycan array binding signal (z-score)", "setting": "[3]", "result": -0.236},
      {"measurement": "glycan array binding signal (z-score)", "setting": "[4]", "result": -0.354},
      {"measurement": "glycan array binding signal (z-score)", "setting": "[5]", "result": 0.248},
      {"measurement": "glycan array binding signal (z-score)", "setting": "[6]", "result": -0.723},
      {"measurement": "glycan array binding signal (z-score)", "setting": "[7]", "result": 0.712},
      {"measurement": "glycan array binding signal (z-score)", "setting": "[8]", "result": -0.655},
      {"measurement": "glycan array binding signal (z-score)", "setting": "[9]", "result": 0.287},
      {"measurement": "glycan array binding signal (z-score)", "setting": "[10]", "result": -0.716},
      {"measurement": "glycan array binding signal (z-score)", "setting": "[11]", "result": 0.981},
      {"measurement": "glycan array binding signal (z-score)", "setting": "[12]", "result": 0.375},
      {"measurement": "glycan array binding signal (z-score)", "setting": "[13]", "result": 0.766},
      {"measurement": "glycan array binding signal (z-score)", "setting": "[14]", "result": -0.116},
      {"measurement": "glycan array binding signal (z-score)", "setting": "[15]", "result": -0.372},
      {"measurement": "glycan array binding signal (z-score)", "setting": "[16]", "result": -0.45},
      {"measurement": "glycan array binding signal (z-score)", "setting": "[17]", "result": -0.1},
      {"measurement": "glycan array binding signal (z-score)", "setting": "[18]", "result": -0.5},
      {"measurement": "glycan array binding signal (z-score)", "setting": "[19]", "result": -0.432},
      {"measurement": "glycan array binding signal (z-score)", "setting": "[20]", "result": -0.272},
      {"measurement": "glycan array binding signal (z-score)", "setting": "[21]", "result": -0.094},
      {"measurement": "glycan array binding signal (z-score)", "setting": "[22]", "result": -0.487},
      {"measurement": "glycan array binding signal (z-score)", "setting": "[23]", "result": 3.41},
      {"measurement": "glycan array binding signal (z-score)", "setting": "[24]", "result": 0.066},
      {"measurement": "glycan array binding signal (z-score)", "setting": "[25]", "result": 2.65},
      {"measurement": "glycan array binding signal (z-score)", "setting": "[26]", "result": 0.074},
      {"measurement": "glycan array binding signal (z-score)", "setting": "[27]", "result": 0.798},
      {"measurement": "glycan array binding signal (z-score)", "setting": "[28]", "result": -0.224},
      {"measurement": "glycan array binding signal (z-score)", "setting": "[29]", "result": -0.437},
      {"measurement": "glycan array binding signal (z-score)", "setting": "[30]", "result": -0.812},
      {"measurement": "glycan array binding signal (z-score)", "setting": "[31]", "result": 0.204},
      {"measurement": "glycan array binding signal (z-score)", "setting": "[32]", "result": -0.448},
      {"measurement": "glycan array binding signal (z-score)", "setting": "[33]", "result": 0.808},
      {"measurement": "glycan array binding signal (z-score)", "setting": "[34]", "result": -0.335},
      {"measurement": "glycan array binding signal (z-score)", "setting": "[35]", "result": 0.768},
      {"measurement": "glycan array binding signal (z-score)", "setting": "[36]", "result": -0.253},
      {"measurement": "glycan array binding signal (z-score)", "setting": "[37]", "result": 0.246}
    ]}
  ]
}
